# From ChEMBL document CHEMBL4888484, “Replenishing the malaria drug discovery pipeline: Screening and hit evaluation of the MMV Hit Generation Library 1 (HGL1) against asexual blood stage Plasmodium falciparum ,using a nano luciferase reporter read-out” (2022)
# Hit rate of the full screen: of about 150,000 compounds, about 540 (0.36%) showed an effect of 50% or more. The list shows a part of the results.
# System: Plasmodium falciparum
# Assay: Primary screen in NF54 nanoGlo assay, in single point, at 2uM, 72h; a lower Z score goes with more inhibition
# Format: functional, Erythrocyte
# Details: timepoint 72 hour
SMILES,% Inhibition [%],Z score
CS(=O)(=O)N1CCC(C(=O)NC2CCCCC2C(F)(F)F)CC1 (configuration not stated),4,-0.4
CCONC(=O)C(NC(=O)c1ccc(Cl)cc1)C(C)CC (configuration not stated),8,-1.54
CCN(CC)C(=O)N1CCC(C(=O)N2c3ccccc3C[C@@H]2C)CC1,4,-0.82
CCn1nc(C)c(CN2CCCN(S(=O)(=O)N3CCOCC3)CC2)c1C,-18,2.83
CCc1nc(C)ccc1OCc1cccnc1,0,-0.07
Cc1nonc1OCCNC(=O)C[C@H]1CCCOC1,5,-0.63
CS(=O)(=O)N1CCC[C@H](CNC(=O)CN2Cc3ccccc3C2)C1,-3,0.67
CCCNC(=O)CNC(=O)c1coc(C)n1,-1,0.07
C=C(C)[C@H](NC(=O)N1CCS(=O)(=O)CC1)c1ccc(F)c(F)c1,-8,1.58
Cc1ccsc1CNC(=O)Cn1cc2c(n1)CCOC2,-12,1.56
COc1cccc(F)c1C(=O)N[C@@H]1[C@H]2CCO[C@H]2[C@H]1Cc1ccccc1,-7,0.86
COc1ccccc1CNC(=O)Cn1c(C)nc2onc(C)c2c1=O,-1,0.11
O=C(NCc1ccnc(-c2ccco2)c1)c1cccc(Cl)c1,-3,0.5
O=C(Oc1ccc(F)cc1)c1cc(-c2ccccc2)on1,7,-0.76
CNC(=O)c1nc(CN2C(=O)CCCC2=O)no1,-17,2.33
C=CC[C@@H](CO)Nc1ccc(F)cc1C#N,-6,0.74
O=C(NCC1CCCCCC1)N[C@H]1COC[C@@H]1O,-6,1.12
Cc1ncsc1C(=O)NCc1nnc2cc(C(F)(F)F)ccn12,-7,1.11
CC(C)N1C(=O)CN(S(=O)(=O)CCCF)CC1(C)C,-16,1.33

SMILES,% Inhibition [%],Z score
O=C(c1scnc1C1CC1)N1CCCCC2CCCCC21 (configuration not stated),-7,0.95
CCCCOC1CC(N(C)C(=O)Cc2csc(CC)n2)C1(C)C (configuration not stated),-1,0.09
O=C(NCCn1nc(-n2cccn2)ccc1=O)C1CCC1,-5,0.95
CS(=O)(=O)N1CCOc2ccc(F)cc2C1,-12,1.59
Cc1cccc(C(=O)N2CCCCCNC(=O)[C@@H]3CCC[C@@H]32)c1,-7,0.94
COCc1cn(C[C@H]2C[C@@H](NC(=O)C3CCCC3)[C@H](O)[C@@H]2O)nn1,31,-3.47
O=C1Nc2ncccc2O[C@H]1CCN1CCN(Cc2ccccc2)CC1,-2,0.27
CCC(=O)N1CCCC[C@@]1(C)c1noc(-c2ccc(F)cc2)n1,-6,0.92
Cc1cc(C(=O)N2C[C@H](C)Oc3ccccc32)on1,-17,2.19
CC1(C)C[C@@H](NC(=O)c2nccc3occc23)CCS1(=O)=O,3,-0.55
CN1CCCC[C@@H]1CN1CCN(C(=O)c2cc(F)cc(F)c2)CC1,1,-0.1
C[C@H](OC(=O)c1ccc(N2C(=O)c3ccccc3C2=O)cc1)C(=O)Nc1ccc2c(c1)OCCO2,10,-1.53
COC(=O)c1cnc2c(c1)n(Cc1coc(C)n1)c(=O)n2CC(C)C,-13,2.43
COc1ccc(CC[C@H](C)NC2CCCC2)cc1,-7,1.3
CCN(CC)CCNC(=O)c1ccc(-c2nc(CCN(C)C(=O)c3ccc(C)cc3)no2)cc1,-10,0.94
O=C(Cn1cnc2nc(N3CCOCC3)ncc2c1=O)NCc1ccc(F)c(Cl)c1,1,-0.16
Cc1cc(COc2ccccc2)oc1C(=O)N[C@@H](C)Cc1cnccn1,-9,0.87
CC(=O)c1ccc(-c2nc(C)nc(N3CCCC3)c2N)cc1,-11,1.62
CC(C)OCC[C@H]1CCCCN1CCN1C(=O)CCC1=O,6,-0.78

SMILES,% Inhibition [%],Z score
CCc1ccc(CCNC(=O)N2CCC3(CCO3)CC2)cc1,-3,0.57
Cc1cc(C(=O)Nc2cnccc2NC2CC2)n(C)n1,9,-1
COC1CC(N(C)c2ncnc3c2nnn3C(C)C)C12CCC2 (configuration not stated),-4,0.82
O=C(NCC[C@@H](CCO)c1cccs1)c1ccccc1,3,-0.38
CC(=O)OCC(OC(C)=O)C(OC(C)=O)C(OC(C)=O)C(=O)Nc1ccc(C)cc1C (configuration not stated),-19,2.09
Cc1ccsc1-c1cn(Cc2c(CO)cnc(C)c2O)nn1,-3,0.5
CC(C)c1nn(C)cc1-c1noc(C(F)=C2CCCC2)n1,4,-0.58
Clc1ccc(-c2noc(CN3CCc4ccccc43)n2)cc1,-5,0.52
O=C(CCc1cc2n(n1)CCN(C1Cc3ccccc3C1)C2)N1CCCC1,-7,1.28
c1ccc(-c2nc(Cc3nc4ccccc4[nH]3)no2)cc1,-27,2.42
COCCC(=O)NCC1CC12CCc1ccccc12 (configuration not stated),-13,2.45
O=C(CCc1ccc(Cl)c(C(F)(F)F)c1)N1CC[C@H](N2CCc3ccccc3C2)C1,50,-7.74
CO[C@@H](C)CS(=O)(=O)Nc1cc(Cl)ccc1Br,4,-0.4
Cc1nn(C)c(C)c1C1OCCC1CNCc1csc(C2CC2)n1 (configuration not stated),-8,0.75
Cc1ccc(N(CC(=O)N2CCN(Cc3ccc4c(c3)OCO4)CC2)S(=O)(=O)N(C)C)cc1,8,-0.76
CC1=NN(c2ccccc2)C(=O)C12Cc1cc(C(F)(F)F)ccc1N1CCN(Cc3ccccc3)CC12 (configuration not stated),6,-0.77
O=C(CN1CCN(c2ccccc2F)C1=O)N1CCC(Oc2ccncc2Cl)CC1,-2,0.31
Cc1nc(N2CCC(C(=O)NC[C@H]3CCS(=O)(=O)C3)CC2)nc2ccc(C(C)C)cc12,-3,0.33
